± gives the standard deviation of the averaged measurements. Whole data set: some 33,000 sequences, median “E-score (dimensionless, -0.5 to 0.5)” near -0.046, cut for the highest 2% near 0.36. Some of the results follow.
tested on: T1, SpTbr T-box DNA-binding domain (GST fusion); test: PBM E-score of 8-mer (E-score (dimensionless, -0.5 to 0.5)); Tbr is Tbrain of the sea star Patiria miniata (Pm) or the sea urchin Strongylocentrotus purpuratus (Sp); higher = stronger binding preference; most listed sequences are background and not binding sites; conditions: the construct has about 5 more residues each side
T1 sequence: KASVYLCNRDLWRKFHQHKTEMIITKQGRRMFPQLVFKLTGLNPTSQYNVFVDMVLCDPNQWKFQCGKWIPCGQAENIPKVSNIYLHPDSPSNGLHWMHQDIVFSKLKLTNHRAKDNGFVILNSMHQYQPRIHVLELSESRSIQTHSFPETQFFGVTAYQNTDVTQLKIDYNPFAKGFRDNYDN
In short: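 Universal Agilent oligonucleotide arrays, made double-stranded by primer extension, were incubated with 200 nM GST-fused Tbr T-box DNA-binding domain in PBS (pH 7.5). The protein was expressed in BL21 E. coli at 20 °C and purified by glutathione affinity chromatography. After scanning and quantification, the Universal PBM Analysis Suite assigned an enrichment E-score to each ungapped 8-mer, averaged over duplicate arrays.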

Row | Sequence | PBM E-score of 8-mer
1 | CCCTACGA | -0.0943 ± 0.036
2 | CATGTGTC | 0.3458 ± 0.0021
3 | CCCAGAGA | -0.125 ± 0.058
4 | AATATACC | 0.0406 ± 0.0038
5 | ACCATACC | -0.262 ± 0.027
6 | ACTCCTAC | -0.128 ± 0.01
7 | AGACTCGG | -0.23 ± 0.019
8 | CTGCCCAC | 0.123 ± 0.0056
9 | GCATAAGC | -0.0661 ± 0.023
10 | CAACATTA | -0.127 ± 0.022
11 | ATACCAAG | -0.00145 ± 0.017
12 | ACGTCGAC | 0.0807 ± 0.016
13 | ACCACTCT | -0.04686 ± 0.00032
14 | TGCGAGAA | 0.36401 ± 0.00027
15 | CCTACTAA | -0.0157 ± 0.06
16 | ACTTATCG | 0.0951 ± 0.025
17 | CCGGTTCC | -0.27 ± 0.0077
18 | CGAGCCCG | -0.0449 ± 0.0048
19 | CCGTGGAA | 0.024 ± 0.04
20 | CCTGGCAG | -0.0627 ± 0.0057
21 | CCCTAACC | -0.113 ± 0.029
22 | TATGCTGA | -0.169 ± 0.036
23 | ACTGCAAA | 0.0982 ± 0.0092
24 | CATAAGAG | -0.286 ± 0.003
25 | AGAAGCTC | -0.0389 ± 0.0014

Row | Sequence | PBM E-score of 8-mer
26 | AACGGTGG | -0.1376 ± 0.00095
27 | AGAGAGGG | -0.157 ± 0.078
28 | CATGCAGC | -0.0608 ± 0.074
29 | GGAGTGCC | 0.0103 ± 0.042
30 | AAAGCTGC | 0.0991 ± 0.073
31 | ACCGGGCA | -0.248 ± 0.025
32 | ATGCCTCG | -0.0593 ± 0.14
33 | ATCTTCCC | -0.105 ± 0.012
34 | CCAAGATC | -0.0932 ± 0.01
35 | GTCAATCA | -0.00127 ± 0.013
36 | AAATGTCT | -0.1219 ± 0.00025
37 | AATGAGCC | -0.11 ± 0.0038
38 | GCCCGACA | 0.229 ± 0.022
39 | CGCGTCCG | 0.0707 ± 0.085
40 | ACGATGAC | 0.105 ± 0.041
41 | AACCGATG | -0.0787 ± 0.073
42 | ACTGCACG | -0.0519 ± 0.037
43 | CGCTCGTC | -0.222 ± 0.041
44 | ACGTTTCC | -0.0163 ± 0.073
45 | CGTCCGCA | 0.139 ± 0.042
46 | GATGATTA | 0.153 ± 0.019
47 | CGCTCCAA | 0.01 ± 0.055
48 | GTTCTAAA | -0.334 ± 0.035
49 | CGGAGTTA | -0.132 ± 0.0015
50 | TCGAGGAA | -0.188 ± 0.093

Row | Sequence | PBM E-score of 8-mer
51 | CCCCGAGA | -0.156 ± 0.034
52 | AACACTTG | 0.3953 ± 0.0019
53 | GCCTACAA | 0.0391 ± 0.063
54 | CACACTTA | 0.447 ± 0.0064
55 | GAGGAGTA | 0.16 ± 0.02
56 | GCAACGTA | -0.134 ± 0.068
57 | AGTGGCTG | -0.0229 ± 0.054
58 | AGGCCTGA | -0.2517 ± 0.0013
59 | ATCGAATG | -0.134 ± 0.046
60 | CTATGTAA | -0.0688 ± 0.047
61 | CGATCCAA | 0.0542 ± 0.051
62 | AGCACTAT | 0.108 ± 0.084
63 | CTAAAAGA | -0.201 ± 0.022
64 | AATAACGC | 0.052 ± 0.13
65 | TATATTGA | -0.0827 ± 0.014
66 | ACAACATC | 0.146 ± 0.015
67 | ATCCGATC | -0.123 ± 0.052
68 | GCTTATCA | 0.0701 ± 0.045
69 | AGTCTATC | -0.154 ± 0.051
70 | CCCTTAAG | 0.0237 ± 0.053
71 | GGTGAACC | 0.0507 ± 0.064
72 | CTCGTGGC | -0.114 ± 0.04
73 | CCCCGATA | -0.122 ± 0.016
74 | AACGGCCT | -0.096 ± 0.055
75 | CCTAAGTA | -0.121 ± 0.035

Row | Sequence | PBM E-score of 8-mer
76 | AGTTAGAA | -0.032 ± 0.097
77 | CCGGTGTA | 0.115 ± 0.037
78 | ACTCGTAC | -0.0977 ± 0.07
79 | GGCTAACA | 0.235 ± 0.024
80 | ATACCGAC | 0.00424 ± 0.047
81 | CCAACTGG | -0.139 ± 0.044
82 | ATTAACTA | -0.0755 ± 0.079
83 | ATATACCA | 0.00106 ± 0.052
84 | ATTAATGG | -0.0591 ± 0.094
85 | GCTGAGTA | -0.228 ± 0.011
86 | TAGGTGGA | 0.206 ± 0.028
87 | CCATATAG | -0.322 ± 0.076
88 | GGATCATA | -0.163 ± 0.096
89 | AAATATAC | -0.251 ± 0.023
90 | CGACCAAA | -0.195 ± 0.011
91 | CGTATGGA | -0.161 ± 0.0036
92 | AACTAGTT | 0.0697 ± 0.073
93 | GTTCTCCA | -0.198 ± 0.076
94 | CAAACGCC | -0.0351 ± 0.013
95 | CAGACGAC | -0.0662 ± 0.051
96 | ACGTTAGA | -0.0851 ± 0.017
97 | AAGTCACA | 0.265 ± 0.015
98 | CGCCGTTA | 0.0601 ± 0.004
99 | GGTTCCCA | 0.0138 ± 0.028
100 | GGAATGAC | -0.0205 ± 0.025

Row | Sequence | PBM E-score of 8-mer
101 | ATAACCAC | -0.138 ± 0.015
102 | GTCACGAC | 0.188 ± 0.034
103 | CCCAACAG | -0.00133 ± 0.037
104 | AAATCAGT | -0.139 ± 0.019
105 | ATTGGAGC | -0.119 ± 0.03
106 | GAACAGGA | -0.0932 ± 0.027
107 | AGTGATAC | 0.174 ± 0.015
108 | ATGTCTAA | -0.129 ± 0.078
109 | CCTCCACA | 0.176 ± 0.039
110 | CAAGTTGC | 0.2707 ± 0.0024
111 | GTGCCTTA | -0.141 ± 0.041
112 | AGTACCTC | -0.0654 ± 0.08
113 | GTTTAACA | 0.259 ± 0.059
114 | GGCTTCCC | -0.0838 ± 0.065
115 | AGGTCGAT | 0.058 ± 0.02
116 | GATACGAC | 0.135 ± 0.0063
117 | ACTCTTAG | -0.106 ± 0.0089
118 | GATCTCCA | -0.0351 ± 0.043
119 | ATCCGCCA | -0.155 ± 0.022
120 | GATATCGA | 0.0185 ± 0.025
121 | GAACCAAC | 0.0827 ± 0.051
122 | ACGTTCAT | -0.101 ± 0.02
123 | AAGAATCT | -0.109 ± 0.042
124 | GACACCCA | 0.374 ± 0.032
125 | GGGCCAGA | -0.323 ± 0.047

Row | Sequence | PBM E-score of 8-mer
126 | AAACCGTC | 0.0955 ± 0.014
127 | ACGTAAAC | 0.0232 ± 0.047
128 | TACTTCGA | -0.0694 ± 0.013
129 | AATGCTAT | -0.0321 ± 0.071
130 | GGGCTAGA | -0.17 ± 0.012
131 | ACTCCTCC | 0.116 ± 0.0039
132 | TCGAAAAA | -0.0371 ± 0.08
133 | AGGCATGA | -0.156 ± 0.016
134 | AAGCCTCA | -0.084 ± 0.059
135 | TCTCCTAA | -0.171 ± 0.012
136 | GGTTCCAA | -0.206 ± 0.069
137 | ACAACTAG | -0.0892 ± 0.11
138 | AACAGCGC | 0.143 ± 0.006
139 | GGGATAAC | 0.0528 ± 0.052
140 | AATAGGCT | -0.176 ± 0.032
141 | AAGACCCG | 0.016 ± 0.079
142 | CAAATGCC | -0.0761 ± 0.015
143 | CCGAGCGA | -0.173 ± 0.081
144 | CAGCGCCC | 0.0237 ± 0.035
145 | CTAATTGC | -0.123 ± 0.028
146 | GTCGGCAA | 0.0712 ± 0.012
147 | CCTGTTGC | 0.0625 ± 0.07
148 | GGGTCTCA | 0.08 ± 0.017
149 | AGCTGCAA | 0.123 ± 0.033
150 | ACCGACTA | -0.18161 ± 9.9e-05

Row | Sequence | PBM E-score of 8-mer
151 | CGATTTGA | 0.0256 ± 0.01
152 | GACCCCGA | -0.173 ± 0.09
153 | GGGTGGAC | -0.0836 ± 0.044
154 | GAACTCCC | -0.0829 ± 0.0089
155 | GGGCCTCA | -0.104 ± 0.044
156 | GGAGCTTA | -0.192 ± 0.031
157 | ACTTTATC | 0.0371 ± 0.019
158 | AATAGGTC | -0.154 ± 0.017
159 | ACCGATTA | -0.00785 ± 0.032
160 | CCTCCGAA | -0.0722 ± 0.014
161 | GAACAGGC | -0.114 ± 0.02
162 | AATAGCGA | 0.258 ± 0.026
163 | AAACCACT | -0.258 ± 0.016
164 | GCCCGGAC | -0.183 ± 0.039
165 | CTGATTGA | -0.0408 ± 0.029
166 | ACTCGCTA | 0.255 ± 0.025
167 | AATACCTG | -0.0292 ± 0.072
168 | GCACTTCC | 0.326 ± 0.017
169 | ATTCCCAC | 0.225 ± 0.019
170 | AATGAGGC | -0.187 ± 0.087
171 | GCAATCAC | 0.176 ± 0.029
172 | TAGGCAAA | -0.0674 ± 0.095

Source: the supplement of paper PMC4166925
